Here are results for 153 variants from a collection of fitness landscapes (doi:10.1016/j.celrep.2020.107928).

B1: Caulobacter ParB omega fusion; a variant is named by its letters at X, in order, B8GW30 (parent)
chain: MESVVVGEPGMSEGRRGLGRGLSALLGEVDAAPAQAPGEQLGGSREAPIEILQRNPDQPRRTFREEDLEDLSNSIREKGVLQPILVRPSPDTAGEYQIVAGERAWRAAQRAGLKTVPIMVRELDDLAVLEIGIIENVQRADLNVLEEALSYKVLMEKFERTQENIAQTIGKSXSHVANXMRLLXLPDEVQSYLVSGELTAXHARAIAAAADPVALAKQIIEGGLSVRETEALARKAPNLSAGKSKGGRPPRVKDTDTQALESDLSSVLGLDVSIDHRGSTGTLTITYATLEQLDDLCNRLTRGI

In all, about 81,000 sequences were measured (“one-hybrid fitness for binding NBS DNA”: median about -0.1, highest 2% from about 0.36 on). The list shows a part of the results. Where only a bound is given, the exact number is not on record here.

Variants of B1 are the subject of this assay. Briefly: one-hybrid fitness for binding NBS DNA (the Noc-binding site; scaled: cognate 1, non-cognate 0); higher = stronger binding. To be noted: with NBS DNA site. The essentials: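 On M9-minus-histidine containing 0.1 mM IPTG and 5 mM 3-AT, E. coli USO cells with a HIS3 reporter, site 19 bp from the promoter, grew 48 hours at 37°C to select Caulobacter ParB libraries randomised at four specificity codons. Plasmids from before and after were Illumina-sequenced, with three replicate libraries pooled and variants under 10 reads left out. Fitness is the log change in variant-to-wild-type read ratio, rescaled against cognate and non-cognate.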
For MIAG, the “one-hybrid fitness for binding NBS DNA” value was not above 0.2. For WLAS the value was not above 0.2; for KEGL, not above 0.2; for HGWG, not above 0.2.

As for NVTK, the “one-hybrid fitness for binding NBS DNA” value is not above 0.2.

QCLK: the “one-hybrid fitness for binding NBS DNA” value was not above 0.2. Next, QFAG: not above 0.2; LYVT: not above 0.2.

Turning to RTDY, the “one-hybrid fitness for binding NBS DNA” value is not above 0.2.

As to QCCF, the “one-hybrid fitness for binding NBS DNA” value is not above 0.2.

For the variant NWPM, the “one-hybrid fitness for binding NBS DNA” value is not above 0.2. For RAMM the value was not above 0.2; for ESSY, not above 0.2. Next, FDLR: not above 0.2; DIAW: not above 0.2.

Turning to VLPL, the “one-hybrid fitness for binding NBS DNA” value was not above 0.2.

Turning to ARKG, the “one-hybrid fitness for binding NBS DNA” value was not above 0.2. For GKDG the value was not above 0.2; for DLIG, not above 0.2. Next, YPVR: not above 0.2; EAAC: not above 0.2; RKQY: 0.246.

Take VPLH: the “one-hybrid fitness for binding NBS DNA” value is not above 0.2. On to FPYT, for which the “one-hybrid fitness for binding NBS DNA” value was not above 0.2. RVAH: the “one-hybrid fitness for binding NBS DNA” value is not above 0.2. For PDRV the value was not above 0.2. For CPVC the value was not above 0.2; for KVCE, not above 0.2; for VKAV, not above 0.2. Next, VVKP: not above 0.2; LSGY: not above 0.2; QNLP: not above 0.2.

QFIG: the “one-hybrid fitness for binding NBS DNA” value is not above 0.2. Take SAEI: the “one-hybrid fitness for binding NBS DNA” value is not above 0.2.

DVRM: the “one-hybrid fitness for binding NBS DNA” value is not above 0.2. For IRWY the value was not above 0.2.

Take TLAF: the “one-hybrid fitness for binding NBS DNA” value was not above 0.2. Next, IATC: not above 0.2. For CYVF the value was not above 0.2; for YIYF, not above 0.2; for RMLD, not above 0.2. Next, PGFS: not above 0.2; GRYG: not above 0.2; GHCG: not above 0.2. As for GMKF, the “one-hybrid fitness for binding NBS DNA” value was not above 0.2.

As for VDRF, the “one-hybrid fitness for binding NBS DNA” value is not above 0.2.

Turning to SEEV, the “one-hybrid fitness for binding NBS DNA” value was not above 0.2.

LIFS: the “one-hybrid fitness for binding NBS DNA” value was not above 0.2. Next, SEAC: not above 0.2. LRHA: the “one-hybrid fitness for binding NBS DNA” value is not above 0.2. For GTWD the value was not above 0.2; for TDKV, not above 0.2.

As for MNQL, the “one-hybrid fitness for binding NBS DNA” value was not above 0.2.

As to ISGG, the “one-hybrid fitness for binding NBS DNA” value is not above 0.2. For QLMY the value was not above 0.2; for SNLI, not above 0.2. Next, SFAN: not above 0.2; YHSD: not above 0.2; LQNT: not above 0.2. Next, PGFG: not above 0.2. Take VGYG: the “one-hybrid fitness for binding NBS DNA” value was not above 0.2. Regarding YLHN, the “one-hybrid fitness for binding NBS DNA” value was not above 0.2. For VRQH the value was not above 0.2; for PLRF, not above 0.2; for GCKG, not above 0.2. Next, AAQI: not above 0.2. Next, KKRP: not above 0.2; CATP: not above 0.2. For the variant HYHT, the “one-hybrid fitness for binding NBS DNA” value was not above 0.2. Next, TFPH: not above 0.2; IRQE: not above 0.2; VNLN: not above 0.2. With QAPS, the “one-hybrid fitness for binding NBS DNA” value is not above 0.2.

On to LGWM, for which the “one-hybrid fitness for binding NBS DNA” value is not above 0.2.

Turning to ISGC, the “one-hybrid fitness for binding NBS DNA” value was not above 0.2.

Consider PSRN, for which the “one-hybrid fitness for binding NBS DNA” value was not above 0.2. Next, VQWC: not above 0.2; RGTK: not above 0.2; QDDR: not above 0.2. For DEMS the value was not above 0.2; for FHER, not above 0.2. Next, HPVV: not above 0.2; MDTV: not above 0.2. PAWV: the “one-hybrid fitness for binding NBS DNA” value is not above 0.2. Turning to YEQR, the “one-hybrid fitness for binding NBS DNA” value was not above 0.2. For RMCD the value was not above 0.2; for CRPL, not above 0.2. Next, RHDH: not above 0.2; TKLQ: not above 0.2. Next, CVKA: not above 0.2; EVLA: not above 0.2; CTYS: not above 0.2. For WCNR, the “one-hybrid fitness for binding NBS DNA” value was not above 0.2.

For MRME, the “one-hybrid fitness for binding NBS DNA” value is not above 0.2.

As for KLKP, the “one-hybrid fitness for binding NBS DNA” value was not above 0.2. For MGHG the value was not above 0.2; for RPTK, not above 0.2; for HGPM, not above 0.2.

Take TTNE: the “one-hybrid fitness for binding NBS DNA” value was not above 0.2.

QIEF: the “one-hybrid fitness for binding NBS DNA” value is not above 0.2.

SGSH: the “one-hybrid fitness for binding NBS DNA” value was not above 0.2.

For the variant AASP, the “one-hybrid fitness for binding NBS DNA” value was not above 0.2. Next, DPQQ: not above 0.2. For SRYM the value was not above 0.2. Next, WKDP: not above 0.2; HAKR: not above 0.2; SFAA: not above 0.2. Regarding VSTM, the “one-hybrid fitness for binding NBS DNA” value was not above 0.2. Next, TNLN: not above 0.2; FRSG: not above 0.2; SNLF: not above 0.2. Next, FEDA: not above 0.2; FSYT: not above 0.2; DYWR: not above 0.2. Next, LHWR: not above 0.2. Turning to YNND, the “one-hybrid fitness for binding NBS DNA” value was not above 0.2. For VLIA the value was not above 0.2; for HLTD, not above 0.2; for GVIL, not above 0.2. On to IAKS, for which the “one-hybrid fitness for binding NBS DNA” value is not above 0.2.

As for IVVS, the “one-hybrid fitness for binding NBS DNA” value was not above 0.2.

As to CVAC, the “one-hybrid fitness for binding NBS DNA” value was not above 0.2. For FLAP the value was not above 0.2; for AAGD, not above 0.2. Next, CHLM: not above 0.2; CERF: not above 0.2; LQTL: not above 0.2. Next, KAHC: not above 0.2; QWAC: not above 0.2; QCNW: not above 0.2. As to IYEV, the “one-hybrid fitness for binding NBS DNA” value was not above 0.2. Regarding MLVW, the “one-hybrid fitness for binding NBS DNA” value is not above 0.2. As to RGLR, the “one-hybrid fitness for binding NBS DNA” value was not above 0.2. For QFNT the value was not above 0.2.

For QIAG, the “one-hybrid fitness for binding NBS DNA” value was not above 0.2. As to SHHG, the “one-hybrid fitness for binding NBS DNA” value is not above 0.2. Take SSHK: the “one-hybrid fitness for binding NBS DNA” value was not above 0.2. VRDK: the “one-hybrid fitness for binding NBS DNA” value is not above 0.2. Next, AVVS: not above 0.2; TYIC: not above 0.2. Next, VVVG: not above 0.2; RTKH: 0.651; NCME: not above 0.2. Consider NWSS, for which the “one-hybrid fitness for binding NBS DNA” value is not above 0.2. Next, QPSM: not above 0.2.

On to GTVT, for which the “one-hybrid fitness for binding NBS DNA” value was not above 0.2. For VHEL the value was not above 0.2; for NKYM, not above 0.2; for WLWM, not above 0.2.

Turning to LVQA, the “one-hybrid fitness for binding NBS DNA” value was not above 0.2. For IVGW, the “one-hybrid fitness for binding NBS DNA” value was not above 0.2. For the variant IMAR, the “one-hybrid fitness for binding NBS DNA” value was not above 0.2. Next, PVEI: not above 0.2.
